# Measured values taken from publication PMC4336329 (PLoS ONE, 2015).
# Out of some 310,000 compounds screened, about 14,000 (4.5%) showed an effect of 50% or more. The effect is printed as a negative number. This is one part of the list.
# Target: human ether-à-go-go-related gene (hERG) potassium channel (human, UniProt Q12809)
# Assay: primary screen, population patch clamp on CHO cells stably expressing hERG
# 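Also: peak tail current of the secondary pulse compared with the same well before compound.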
# human ether-à-go-go-related gene (hERG) potassium channel, sequence (Q12809 whole entry, looked up): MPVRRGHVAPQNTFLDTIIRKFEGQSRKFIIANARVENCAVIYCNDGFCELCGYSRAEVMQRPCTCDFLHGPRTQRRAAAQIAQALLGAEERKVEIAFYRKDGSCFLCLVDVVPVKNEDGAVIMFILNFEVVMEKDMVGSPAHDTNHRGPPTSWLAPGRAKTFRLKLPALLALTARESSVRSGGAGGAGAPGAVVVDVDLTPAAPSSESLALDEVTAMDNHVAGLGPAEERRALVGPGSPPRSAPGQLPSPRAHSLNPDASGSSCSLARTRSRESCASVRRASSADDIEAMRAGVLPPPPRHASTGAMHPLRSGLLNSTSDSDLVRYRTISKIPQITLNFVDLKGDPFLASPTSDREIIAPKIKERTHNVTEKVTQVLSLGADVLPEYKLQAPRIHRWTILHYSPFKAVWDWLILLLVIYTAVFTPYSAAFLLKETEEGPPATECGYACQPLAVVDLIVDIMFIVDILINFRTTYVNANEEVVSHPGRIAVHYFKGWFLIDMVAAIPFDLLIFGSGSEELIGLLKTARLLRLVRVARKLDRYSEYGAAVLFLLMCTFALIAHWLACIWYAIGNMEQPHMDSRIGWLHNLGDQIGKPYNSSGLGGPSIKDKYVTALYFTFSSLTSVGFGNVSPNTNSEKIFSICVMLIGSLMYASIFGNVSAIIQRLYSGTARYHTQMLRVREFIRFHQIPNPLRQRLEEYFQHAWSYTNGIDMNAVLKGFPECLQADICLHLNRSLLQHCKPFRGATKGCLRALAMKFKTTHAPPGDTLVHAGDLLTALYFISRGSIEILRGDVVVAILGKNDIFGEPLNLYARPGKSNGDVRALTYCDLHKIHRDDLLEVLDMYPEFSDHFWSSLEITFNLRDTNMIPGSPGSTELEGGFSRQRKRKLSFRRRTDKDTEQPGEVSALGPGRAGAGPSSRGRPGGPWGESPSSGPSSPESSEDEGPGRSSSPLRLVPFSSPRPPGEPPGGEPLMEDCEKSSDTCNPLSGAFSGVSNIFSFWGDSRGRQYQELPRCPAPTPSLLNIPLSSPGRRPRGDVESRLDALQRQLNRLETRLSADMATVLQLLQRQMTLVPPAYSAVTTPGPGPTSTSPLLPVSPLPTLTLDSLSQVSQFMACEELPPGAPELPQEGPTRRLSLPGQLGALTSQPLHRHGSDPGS
row,Structure (SMILES),"hERG current change (%, negative = inhibition) at 10uM [%]"
1,CCN1C(=O)CC(N2CCC(C(=O)OC)CC2)C1=O (stereo not shown),9.32
2,CS(=O)(=O)N1CCN(c2ccc(NC(=O)c3cc4ccccc4o3)cc2)CC1,14.8
3,COC(OC)c1ccnc(SCc2ccccc2Cl)n1,6.74
4,O=[N+]([O-])c1ccc(N/N=C/c2ccccc2O)cc1,15.8
5,Cc1cc2ccccc2nc1SCC(=O)NC1CCCCC1,0.648
6,COCCOC(=O)C1=C(C)NC2=C(C(=O)CCC2)C1c1ccc2c(c1)OCO2 (stereo not shown),-49.6
7,O=c1ccnc(NCCc2ccccc2)[nH]1,12.7
8,CCOC(=O)/C(=N/Nc1ccccc1)N1CCCc2ccccc21,3.39
9,O=C(Cc1ccc(Cl)cc1)Nc1ccc(-c2cc3ccccc3oc2=O)c(Cl)c1,-6.02
10,CCN(CC(=O)Nc1ccc([N+](=O)[O-])cc1OC)c1ccccc1,-27.5
11,O=C(Nc1cccc(F)c1)c1ccccc1-c1ccccc1,-26.5
12,CCOc1ccc(C(=O)Nc2ccc(N3CCN(S(C)(=O)=O)CC3)cc2)cc1[N+](=O)[O-],7.63
13,CCN(CC)S(=O)(=O)c1ccc(Cl)c(C(=O)NC2CCN(Cc3ccccc3)CC2)c1.Cl,-28.8
14,CO/N=C/c1ccc(N2CCCC2)c([N+](=O)[O-])c1,-1.34
15,O=C(NCc1ccccc1)C1Cc2ccccc2CN1C(=O)c1ccco1 (stereo not shown),-12.2
16,Cc1ccccc1NC(=O)c1cc(S(=O)(=O)N2CCOCC2)ccc1F,3.48
17,CC(C)OC(=O)c1c(N)n(CCCN2CCOCC2)c2nc3ccccc3nc12,-20.6
18,COc1ccc(NC(=O)CSc2ncc(-c3ccc(F)cc3)n2Cc2ccco2)cc1,19
19,CC(=O)NC(CC(=O)NCCOc1ccccc1F)c1ccccc1 (stereo not shown),8.05
20,Cc1ccc(-n2cnnn2)c2cccnc12,5.19

row,Structure (SMILES),"hERG current change (%, negative = inhibition) at 10uM [%]"
1,CC1(C)CC(=O)C=C(c2cccc(Br)c2)C1,-11
2,COc1cc(/C=N/NC(=O)c2ccncc2)ccc1O.O,7.74
3,O=C(O)CCN1C(=O)NC2(CCCC2)C1=O,7.84
4,CN(C)S(=O)(=O)c1cccc(NC(=O)CN(CCO)CC(=O)Nc2cccc(S(=O)(=O)N(C)C)c2)c1,8.52
5,COC(=O)c1c(N)sc2c1CC(C)(C)OC2,9.11
6,COc1ccc(C(=O)NC(C)c2cc(OC)c(OC)cc2Br)cc1 (stereo not shown),-39.7
7,CC(C)Oc1ccc(C(=O)O)cc1,16.5
8,CCSc1nnc(Nc2ccc(C)cc2)s1,4.51
9,COc1ccccc1C(CCNCc1ccc(N(C)C)cc1)c1ccc(OC(C)C)cc1 (stereo not shown),-73.8
10,C#CCNC(=O)/C=C/c1ccc(C)cc1,26.2
11,CCCOc1cccc(C2C(C(=O)c3ccco3)=C(O)C(=O)N2CCN(CC)CC)c1 (stereo not shown),5.55
12,O=C(CSc1nnc2n(C3CCCCC3)c(=O)c3ccccc3n12)OC1CCCCC1,-4.92
13,CCCCNC(=O)c1cc(C)nc2ccccc12,-0.46
14,CC(C)(C)c1ccc(C(=O)NC(=O)CSc2n[nH]c(N)n2)cc1,9.1
15,O=C(Nc1ccc(S(=O)(=O)NC2=NCCCCC2)cc1)c1ccc2ccccc2n1,20.7
16,O=C(CN1C(=O)c2ccccc2S1(=O)=O)Nc1ccc(S(=O)(=O)N2CCCCCC2)cc1,4.32
17,Cc1ccc(C2CC(c3ccccc3C)n3nc(N)nc3N2)cc1 (stereo not shown),-14.6
18,COCCNC(=S)N/N=C(\C)CCc1ccc2c(c1)OCO2,-11.6
19,O=S(=O)(c1ccccc1)N1CCN(C(=S)NC2CCCC2)CC1,-1.81
20,CC1CCCC(NC(=O)c2cn(C)c3ccc(S(=O)(=O)N4CCCC4)cc3c2=O)C1C (stereo not shown),-23.2

row,Structure (SMILES),"hERG current change (%, negative = inhibition) at 10uM [%]"
1,O=C(CN1CCN(S(=O)(=O)c2ccc(Br)cc2)CC1)N/N=C/c1ccc(Br)s1,-17.6
2,Cn1ncc(N)c1C(=O)Nc1cccc(C(F)(F)F)c1,1.42
3,CC1C(=O)N2CCCc3cc(NC(=O)C(=O)NCc4ccc5c(c4)OCO5)cc1c32 (stereo not shown),-8.27
4,CC1CCCN(C(=O)COC(=O)c2cccc(NS(=O)(=O)c3ccccc3)c2)C1 (stereo not shown),-15.1
5,CCCCN(C)Cc1c(C(=O)N2CCc3ccccc3C2)nc2ccc(Cl)cn12,-50.1
6,Cc1ccc2nc(SCC(=O)Nc3oc(C)c4c(C)n[nH]c(=O)c34)[nH]c2c1,8.6
7,O=[N+]([O-])c1ccc(CN2CCN(c3ccc(F)cc3)CC2)o1,13.6
8,C=C(C)Cn1c(SCCCO)nc2c1c(=O)[nH]c(=O)n2C,-4.83
9,CCOc1ccc(CCNC(=O)Cn2c(-c3nonc3N)nc3ccccc32)cc1OCC,-3.72
10,Cc1cccc(/C(N)=N/OC(=O)COc2ccc(Cl)cc2)c1,-1.01
11,CCC(C(=O)Nc1ccc2[nH]ncc2c1)c1ccccc1 (stereo not shown),17.3
12,COc1cc(/C=C/c2nc3ccccc3c(=O)[nH]2)cc(Cl)c1O,32.2
13,COc1ccc(S(=O)(=O)N2CCC(C(=O)N3CCCC3)CC2)cc1Cl,-10.1
14,COc1cc(OC)c(C2Nc3cccc4cccc(c34)N2)c(OC)c1,6.67
15,Cc1cc(C(=O)Nc2cnc3ccccc3c2)ccc1[N+](=O)[O-],11.9
16,C/C(=C1\SC(N2CCOCC2)=NC1=O)c1ccccc1,-12.5
17,COc1cc(OC)cc(-c2nnc(NC(=O)CCS(=O)(=O)c3ccc(F)cc3)o2)c1,7.07
18,Cc1cc(CN2CCCC(CO)(Cc3cccc(Cl)c3)C2)n[nH]1 (stereo not shown),-43.2
